Results reported in PubChem BioAssay AID1508624 (National Center for Advancing Translational Sciences (NCATS), 2021).
Hit rate of the full screen: of about 48,000 compounds, about 120 (0.25%) were called active. Inconclusive results (about 4%) are left out. Calls follow the shape of the dose curve; as a rule, active = well fitted activation curve with a large enough effect; inconclusive = small, poorly fitted or top-dose-only effect, or another doubt; inactive = no such curve, though single readings can be large or run the other way. The list shows a part of the results.

Assay: Primary qHTS for Identification of Small Molecule Activators of Huntingtin-Antisense Promoter Activity; also: nearly all actives have a fitted effect of over 55% in size
Details: HEK293 HTT-AS promoter firefly luciferase reporter, 24 h; series mostly up to 57.5 µM; activity change, positive = activation: at the top concentration
Summary of the method: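 Quantitative HTS used concentration series of up to 57.5 uM final on HEK293 luciferase reporter cells, 24 h at 37 degrees C. Readout was Dual-Glo firefly luminescence.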
Potency is read from the fitted curve at half-maximal effect.

Structure (SMILES)	activity change, positive = activation	Potency
Cc1cc(C(C)(C)C)cc(C)c1CC1=NCCN1	inactive	–
Cc1ccccc1NC(=O)CSc1nc2ccc(NC(=O)c3ccco3)cc2s1	inactive: -27.1%	–
Clc1ccc(-c2noc3ncnc(N4CCCCC4)c23)cc1	inactive: -26.1%	–
COc1ccc(C)cc1NC(=O)c1cc(S(=O)(=O)NCCC2=CCCCC2)ccc1F	inactive: -25.7%	–
O=C(CSCc1ccc(F)cc1)N1CCc2c([nH]c3ccccc23)C1c1ccccc1 (configuration not stated)	inactive: -30.1%	–
CCCOc1ccc(Cn2c(=O)sc3ccccc32)cc1	inactive: -10.8%	–
Cc1cccc(N2CCN(C(=O)c3ccc4c(c3)N(Cc3cccc(Cl)c3)C(=O)c3ccccc3S4=O)CC2)c1C (configuration not stated)	inactive: -21.9%	–
O=C(CC(=O)Nc1ccccc1F)Nc1ccc2nc3n(c(=O)c2c1)CCCCC3	inactive: -26.1%	–
Cc1ccc(-c2nc(SCC(=O)Nc3cc(C)on3)c3c(=O)n(C)c(=O)n(C)c3n2)cc1	inactive: -2.41%	–
COc1ccccc1NC(=O)c1c(NC(=O)c2cccs2)sc2c1CCC(C(C)(C)C)C2 (configuration not stated)	inactive: 7.89% [at 11.5 µM, percent change from vehicle, -100% = no light]	–
CCCCCNc1nc2c(-c3ccccc3)nnn2c2ccccc12	inactive: -9.13%	–
CCc1ccc(OC(=O)c2sc3ncn(Cc4cccc(F)c4)c(=O)c3c2C)cc1	inactive: -11.3% [at 11.5 µM, percent change from vehicle, -100% = no light]	–
O=P(O)(O)C(O)(Cn1ccnc1)P(=O)(O)O	inactive: -4.06% [at 25.1 µM, percent change from vehicle, -100% = no light]	–
Cc1ccc(CCNC(=O)C2CCCN(S(=O)(=O)c3ccc4c(c3)oc(=O)n4C)C2)cc1 (configuration not stated)	inactive: -4.44%	–
CCc1ccc(C(=O)c2cn(Cc3ccccc3)c3cc(OC)c(OC)cc3c2=O)cc1	inactive: -22%	–
CCc1ccc(-n2nc(C)c3c(C)cc(=O)n(CC(=O)N(CC)Cc4ccccc4)c32)cc1	inactive: 16.3%	–
Oc1c(C(c2ccc(Cl)cc2Cl)N2CCCC2)sc2nc(-c3ccco3)nn12 (configuration not stated)	inactive: -15.1%	–
CCOc1ccc(CCNC(=O)CCSCc2cccc(Cl)c2)cc1OCC	inactive: -8.92%	–
COc1ccccc1NC(=O)CSc1nc(-c2cccc(Cl)c2)nc2c1Cc1c(CO)cnc(C)c1O2	inactive: -13.3%	–
CCc1ccccc1NC(=O)COC(=O)c1cn(CC)c2nc(C)ccc2c1=O	inactive: -9.65%	–
CCCCOC(=O)c1ccc(Nc2nc3ccc(C)cc3n3cnnc23)cc1	inactive: -10.9%	–
CN(C)c1ccc(NC(=O)C2(c3cccs3)CCOCC2)cc1	inactive: -1.82%	–
O=C(Nc1cc(Cl)ccc1O)c1cc2nc(-c3ccc4c(c3)OCO4)cc(C(F)(F)F)n2n1	inactive: -11.7%	–
CCOc1ccc(-n2c(SCC(=O)N3CCCc4ccccc43)nc3c([nH]c4ccccc43)c2=O)cc1	inactive: -13%	–
CN(c1ccc(Cl)cc1)S(=O)(=O)c1nnc(NC(=O)c2ccco2)s1	inactive: -21.7%	–

Structure (SMILES)	activity change, positive = activation	Potency
CCOC(=O)c1[nH]c(C)c(C(=O)NCCc2ccccc2)c1C	–	active: 7.94 µM
CCOc1ccccc1NC(=O)CCS(=O)(=O)c1ccc(OC)cc1	inactive: -3.18%	–
CCc1ccc(NC(=O)c2cc(CN3CCOCC3)on2)cc1	inactive: 24.7%	–
O=C(CCn1c(=O)c2ccccc2n(Cc2ccc(Cl)cc2)c1=O)NCc1ccc2c(c1)OCO2	inactive: -13.7%	–
Cc1cccc(-n2ccnc2SCC(=O)Nc2cc(C(F)(F)F)ccc2Cl)c1	inactive: -36.4%	–
CC(C)CCn1c(=O)c2sccc2n2c(CCCC(=O)Nc3ccc(F)c(Cl)c3)nnc12	inactive: -35.8%	–
O=C(NCc1ccc(F)cc1Cl)c1ccc(CSCc2ccccc2Cl)o1	inactive: -4.7%	–
Cc1ccc(NC(=O)c2cc(-c3cccs3)nc3ccccc23)c(C)c1	inactive: 9.38%	–
Cc1ccc(N2CCN(C(=O)Nc3cn(CC(C)C)c(=O)c4ccccc34)CC2)c(C)c1	inactive: -6.66%	–
CC(C)Oc1ccc(CNC(=O)c2cnc3sc(N4CCCCCC4)nn3c2=O)cc1	inactive: -3.7%	–
C[C@]12CCC3c4ccc(O)cc4CCC3C1CCC2=O (some centres not stated)	inactive: -22.8%	–
COc1ccc2c3n(c(=NC(=O)c4cccnc4)nc2c1OC)CCN3	inactive: -28.6%	–
CCOc1ccc(/C=C/c2nc(C#N)c(N3CCCCCC3)o2)cc1	inactive: -5.39%	–
Cc1ccc(CNC(=O)c2ccc(CSCc3c(F)cccc3Cl)o2)cc1	inactive: -9.18%	–
COc1ccccc1NC(=O)Cn1c(=O)n(Cc2nc(C)no2)c(=O)c2cc3c(cc21)OCO3	inactive: -4.07%	–
CCN(CC)CCNC(=O)c1c(C)[nH]c(C=C2C(=O)Nc3ccc(F)cc32)c1C	inactive: -31.3% [at 116 µM, percent change from vehicle, -100% = no light]	–
Cc1cc(C)n2nc(CNS(=O)(=O)c3ccc(F)cc3)nc2n1	inactive: -3.38%	–
COc1ccccc1NC(=O)N1CCOc2ccccc21	inactive: -14.1%	–
CCCN(CCC)CCNC(=O)Cn1cnc2sc(C)c(S(=O)(=O)N3CCN(c4ccccc4OC)CC3)c2c1=O	inactive: 22.4%	–
CCn1c(C(=O)NCc2ccccc2)cc2sc(Cl)cc21	inactive: -48.1%	–
COc1cccc(CNC(=O)c2ccc(CN3CC(=O)N4CCCCC4C3=O)cc2)c1 (configuration not stated)	inactive: -14.6%	–
COc1ccccc1/C=C(\C#N)C(=O)NCC1CCCO1 (configuration not stated)	inactive: -7.5%	–
COC(=O)c1c(SC)nc2ccccc2c1OCc1cc(C)ccc1C	inactive: -15.2%	–
Cc1ccc(CNC(=O)c2ccc(NC(=O)c3nsc4ccccc34)cc2)cc1	inactive: -37.5%	–
CCCOc1ccc(CNC(=O)c2cc3oc4ccccc4c3n2C)cc1	inactive: -20.6%	–

Structure (SMILES)	activity change, positive = activation	Potency
CCN(CC)CCOCCOC(=O)C1(c2ccccc2)CCCC1	inactive: -9.13%	–
O=C(Nc1ccc2nc(SCC(=O)N3CCc4ccccc43)sc2c1)c1ccc(Cl)cc1	inactive: -14.7%	–
O=C(CSc1nc(-c2cccs2)cc(C(F)(F)F)n1)Nc1ccccc1Cl	inactive: -28.5%	–
Cc1ccc(NC(=O)CN2C(=O)C(c3ccc(F)cc3)=NC2(C)C)c(C)c1	inactive: -13.9%	–
Cc1cccc(C(=O)Nc2sc3c(c2C(=O)Nc2ccccc2)CCC3)c1	inactive: -12.5%	–
CCOc1ccccc1NC(=O)C(=O)NCC(c1cccnc1)N1CCN(c2ccccc2)CC1 (configuration not stated)	inactive: -25.7%	–
COc1ccc(C)cc1NC(=O)Cc1ccc(NC(=O)N2CCCCc3ccccc32)cc1	inactive: -8.41%	–
Cc1ccc2nc(NCCc3ccc(Cl)cc3)c3nncn3c2c1	inactive: -10.6%	–
Cc1ccc(C)c(Oc2c(C(F)(F)F)oc3c(CN4CCN(C)CC4)c(O)ccc3c2=O)c1	inactive: 12.1%	–
CC(C)c1ccc(Nc2c(-c3ccsc3)nc3ccc(Cl)cn23)cc1	inactive: 22.4%	–
CCOC(=O)C1=C(CN(C)Cc2ccccc2)NC(=O)NC1c1ccc(OC(C)C)cc1 (configuration not stated)	inactive: -38.9%	–
CCn1cc(C(=O)NCc2ccccc2Cl)c(=O)c2cc(S(=O)(=O)N3CCOCC3)ccc21	inactive: -3.61%	–
C[C@@H]1C[C@H]2[C@@H]3CCC4=CC(=O)C=C[C@]4(C)[C@@]3(F)[C@@H](O)C[C@]2(C)[C@H]1C(=O)CO	inactive: -12.6%	–
C#CC(C)(CC)OC(=O)c1ccccc1C(=O)O (configuration not stated)	inactive: 0.579%	–
CCC(=O)C1=C(c2ccccc2)N(C(=O)CC)n2c(nnc2C2CCCCC2)S1	inactive: 0.283%	–
O=C(Nc1ccccc1[N+](=O)[O-])c1csnn1	inactive: 6.26%	–
Cc1nn(C)c2c1c(C(F)(F)F)cc(=O)n2C(C)C(=O)NCc1ccccc1 (configuration not stated)	inactive: -10.7%	–
CCOCCc1nn2c(=O)cc(COC(=O)c3ccc4c(c3)OCO4)nc2s1	inactive: -3.89%	–
O=S(=O)(c1ccc(Br)cc1)N1CCn2cccc2C1c1ccc(Br)cc1 (configuration not stated)	inactive: -19.7%	–
COc1ccc(-c2nc(CS(=O)CC(=O)NCc3ccccc3Cl)c(C)o2)cc1OC (configuration not stated)	inactive: -4.41%	–
O=C(c1ccco1)N1CCNCC1	inactive: -2.24%	–
Cn1c(C(=O)Nc2cccc(Cl)c2)cc2c(=O)n(C)c3ccccc3c21	inactive: -6.92%	–
Cc1ccc(-c2cn3c(n2)sc2cc(C(=O)NC4CCCCCC4)ccc23)c(C)c1	inactive: 4.8%	–
Cc1oc2c(c(C)cc3oc(=O)c(CC(=O)NCCc4ccc(Cl)cc4)c(C)c32)c1C	inactive: -5.47%	–
Cc1cccc(NC(c2nnc(-c3ccccc3)o2)c2ccc(F)cc2Cl)c1C (configuration not stated)	inactive: -26.2%	–

Structure (SMILES)	activity change, positive = activation	Potency
Cc1ccc(Cl)cc1N1CCN(C(=O)C2CCN(S(=O)(=O)c3c(C)noc3/C=C/c3ccccc3F)CC2)CC1	inactive: -5.29%	–
CC(C)c1nn2c(=O)cc(COC(=O)COc3ccccc3F)nc2s1	inactive: 17.5%	–
CCc1ccccc1NC(=O)CSc1nc2ccccc2nc1Cc1cccc(OC)c1	inactive: -5.78%	–
O=C(NCc1ccccc1)c1ccc2c(c1)sc1nc(-c3ccc(F)cc3)cn12	inactive: 12.2%	–
COc1cccc(-c2cn3c(n2)sc2cc(C(=O)NCCc4ccccc4)ccc23)c1	inactive: 19.4%	–
CCCN(C(=O)Cn1nc(Cc2cccnc2)c2ccccc2c1=O)c1ccc(C(C)C)cc1	inactive: -44.9%	–
CCN(CC)C(=O)Nc1ccc(OCC(O)CNC(C)(C)C)c(C(C)=O)c1 (configuration not stated)	inactive: -2.76%	–
COc1ccc(CCNC(=O)c2cc(-c3ccc(C)c(C)c3)nc3ccccc23)cc1OC	inactive: 0%	–
CCCn1c2ccc(C)cc2c2nnc(SCCN3CCCCC3)nc21	inactive: -15.1%	–
Cc1ccc(S(=O)(=O)Nc2nc3n(n2)C(c2ccc(Cl)cc2)C=C(c2ccccc2)N3)cc1 (configuration not stated)	inactive: -14%	–
O=C(CN1C(=O)CC(c2ccco2)Sc2ccccc21)Nc1ccc(OC(F)(F)F)cc1 (configuration not stated)	inactive: -20.5%	–
CCOc1ccc(C2CC(=O)c3c([nH]c(C(=O)OC4CCCCCC4)c3C)C2)cc1 (configuration not stated)	inactive: -12.1%	–
COc1ccc(C(=O)NCC(c2cccs2)S(=O)(=O)c2cccs2)cc1 (configuration not stated)	inactive: -24.3%	–
Cc1ccc(NC(=O)[C@H](Cc2ccccc2)N2Cc3ccccc3C2=O)cc1F	inactive: -14.1%	–
CC1=C(C(=O)OC2CCCCCC2)C(c2c(Cl)cccc2Cl)CC(=O)N1 (configuration not stated)	inactive: -45.9%	–
CCOC(=O)C1=C(CN2CCCCC2)NC(=O)NC1c1ccc(OC)cc1 (configuration not stated)	inactive: -8.08%	–
Cc1cccc(NC(=O)c2ccc(F)c(S(=O)(=O)N3CCN(c4ccc(F)cc4)CC3)c2)c1	inactive: -30.7%	–
COc1cc(OC)c(NC(=O)Nc2cc(C)on2)cc1Cl	inactive: -12.2%	–
Cc1ccc(-c2cn3c(n2)sc2cc(C(=O)NC4CCCCC4)ccc23)cc1	inactive: -7.78%	–
CCOc1ccccc1NC(=O)c1cn(C2CCCCC2)c(=O)c2c1c1ccccc1n2C	inactive: -10.3%	–
COc1ccc(CCNC(=O)CCn2c(=O)c3cccn3c3ccc(F)cc32)cc1OC	inactive: -2.68%	–
CCCCC1C(=O)N(c2ccccc2)N(c2ccc(O)cc2)C1=O (configuration not stated)	inactive: -87.2%	–
